From US10772972B2, “Anti-STEAP2 antibody drug conjugates, and compositions and uses thereof” (Regeneron Pharmaceuticals, Inc., priority 2016, dated 2020) come the findings set out here.

In general, EC50 refers to the concentration at which the effect is half-maximal.

Test [1] relates to C4-2 cells (high-STEAP2 expressing). The experiment in a line: Internalization and total binding on C4-2 cells (imaging, qualitative score). The note with it: 10 μg/ml antibody. Set-up: key: − (no internalization or binding); +(weak internalization or binding); ++(moderate internalization or binding); +++(robust internalization or binding). Type of test: cell-based, human. As for the experimental part:
Briefly, 20,000 C4-2 cells were seeded in PDL coated 96 well plates. The next day, cells were incubated with anti-human STEAP2 antibodies (10 μg/ml) for 30 min on ice followed by two PBS washes. Cells were then incubated with alexa488-conjugated anti-hFc Fab secondary antibody for 30 minutes on ice, followed by two additional PBS washes. Antibodies were allowed to internalize for 1 h at 37° C. in internalization buffer (PBS+2% FBS) or were maintained at 4° C. Cells were fixed in 4% formaldehyde, nuclei were stained with DRAQ5 (Cell signaling), and images were acquired on the ImageXpress micro XL (Molecular Devices).
A qualitative visual assessment of the total binding intensity and the intensity of antibodies that had internalized into vesicles was performed and scored according to the following criteria: − (no internalization or binding), +(weak internalization or binding), ++(moderate internalization or binding) and +++(robust internalization or binding).

A further test deals with monkey PBMCs. The experiment in a line: T cell proliferation assay, cynomolgus PBMC. To be noted: across donors tested. Type of test: cell-based. The protocol: Thawed human or freshly isolated monkey PBMCs (50,000 cells/well) were incubated with 3-fold (human, concentration range: 5E-10M to 2.82E-15M; cynomolgus, concentration range: 1E-09M to 4.57E-13M) serial dilutions of STEAP2×CD3 bispecifics or isotype control in complete medium (RPMI supplemented with 10% FBS, 100 U/mL penicillin, 100 μg/mL streptomycin, 292 μg/mL L-glutamine) and a fixed concentration (human: 200 ng/mL, cyno: 500 ng/mL) of a commercial anti-CD28 antibody (Biolegend, Catalog #302914) in white flat bottom 96-well plates for 72 hours at 37° C. Isolated monkey PBMCs were from two donors (identified as mk8781M or mk9381M). Following incubation, CellTiter Glo® (Promega, Cat #7573) was added and luminescence, as readout for cell viability, was measured using a VICTOR X5 multi-label plate reader. Cell titer was calculated by dividing the luminescence of stimulated cells by the baseline luminescence of unstimulated cells.

A further test concerns cynomolgus T cells. In words: FACS binding titration of STEAP2xCD3 bispecifics on cynomolgus T cells. To be noted: 66.6 nM to 0.001 nM, 30 minutes at 4° C. The protocol:
FACS Binding Titration on Jurkat Cells, PC3_STEAP2/1 Cells and cynomolgus T Cells: Flow cytometric analysis was utilized to determine binding of STEAP2×CD3 bispecific antibodies to Jurkat, PC3_STEAP2/1 chimeric and cynomolgus T cells, followed by detection with a phycoerythrin (PE)-labeled anti-human IgG antibody. Briefly, 2×10^5 cells/well were incubated for 30 minutes at 4° C. with a serial dilution of STEAP2×CD3 bispecific antibodies or control antibody (a human IgG1 antibody that binds a feline antigen with no cross-reactivity to STEAP2 or human or cynomolgus CD3) ranging from 66.6 nM to 0.001 nM. After incubation, the cells were washed twice with cold PBS containing 1% filtered FBS and a PE-conjugated anti-human secondary antibody was added to the cells and incubated for an additional 30 minutes. Wells containing no antibody or secondary antibody only were used as a control. After incubation, cells were washed, re-suspended in 200 μL cold PBS containing 1% filtered FBS and analyzed by flow cytometry on a BD FACS Canto II.

Test [2] concerns FADU cells (STEAP2 negative). In words: FACS binding to STEAP2-negative FADU cells. To be noted: human-Fc antibodies. As for the experimental part:
(§1) The ability of anti-STEAP2 antibodies to selectively bind to human six-transmembrane epithelial antigen of prostate 2 (STEAP2) endogenously expressing cell lines was determined via FACS analysis.
(§2) Briefly, 1×10^5 cells were incubated with 10 μg/ml of anti STEAP2 antibodies, or isotype control antibodies for 30 min on ice in antibody dilution buffer. Following one wash with antibody dilution buffer, cells were incubated with 10 μg/ml of PE conjugated anti-human or anti mouse Fc secondary antibodies for 30 min on ice. Following one additional wash, samples were incubated with Cytofix (1% formaldehyde) for 20 minutes. After one final wash, samples were filtered through a Pall 96 well filtration block, run on a Hypercyt® cytometer and analyzed in ForeCyt™ (IntelliCyt, Albuquerque, N. Mex.). Mean fluorescence intensities (MFI) were expressed as fold change above unstained levels (background). The average fold above background at antibody concentrations of 100-300 nM were determined. For cell binding EC50 determinations, mAb concentrations ranged from 300 nM to […] and EC50 values were determined from a four-parameter logistic equation over a 12-point response curve (GraphPad Prism).
On the technique in general: Flow cytometry measures light scatter and fluorescence of single cells or particles in a stream.

Test [3] has as its system Raji cells (STEAP2 negative). The experiment in a line: FACS binding to STEAP2-negative Raji cells. To be noted: human-Fc antibodies. As for the experimental part:
as §1, §2

B1: H1H11878P: anti-STEAP2 antibody, HCVR/LCVR SEQ ID NOs 18/26 (antibody, V domains shown)
VH: [about 100 residues not shown]IGMVVSGANYYYYYGMDVWGQGTTVTVSS
VL: AIQMTQSPSSLSAYVGDRVIITCRASQGIRNDLGWYQQKPGKAPKLLIYAASSLQSGVPSRFSGSRSGTVFTLTISSLQPEDFATYYCLQDYNYPWTFGQGTKVEIK
On to B1, for which, in test [1], the “Internalization (37° C., 1 h) Qualitative Score” value (“Internalization” for short) is recorded as “+” and the “Total Binding (4° C.) Qualitative Score” value is “+”.

B2: BSSTEAP2/CD3-008: STEAP2×CD3 bispecific: anti-STEAP2 H1H11163 (SEQ 266), anti-CD3 H1H7208P (SEQ 1490), common LCVR SEQ 274 (antibody, V domains shown)
VH 1: QVQLQQSGPGLVKPSQALSLTCAISGDSVSSNSAAWNWIRQSPSRGLEWLGRTYYRSKWYNDYAVSVKSRITINPDTSKNHFSLHLNSMTPEDTAVYYCARARIVVVPGPEVYYYYYYDMDVWGQGTTVTVSS
VH 2: QVQLVESGGGLVHPGRSLRLSCAASGFKFDDYTMHWVRQAPGKGLEWVSDISWNSGSKGYADSVKGRFTISRDNAKDSLYLQMDSLRAADTAFYYCAKDKSGYGHFYYYAMDVWGQGTTVTVSS
VL: [about 100 residues not shown]PITFGQGTRLEIK
For B2, in the test with monkey PBMCs, the “Cynomolgus PBMC proliferation activity (in words)” value was “donor dependent”. This molecule came in with an EC50 with cynomolgus T cells of 16.6 nM.

B3: H1M11243N: anti-STEAP2 hybridoma-generated antibody, mouse IgG1 Fc; variable regions presumably as H1H11243N (antibody, V domains shown)
VH: QVQLQQSGPGLVKPSQTLSLTCAISGDSVSSNSAAWNWIRQSPSRGLEWLGRTYYRSKWYNDYAVSVKSRITINPDTSKNQFSLHLNSVTPEDTAVYYCARAGIVVVPGPDIYYYYYYGMDVWGQGTTVTVSS
VL: [about 100 residues not shown]PITFGQGTRLEIK
As to B3, in test [1], the “Internalization” value is listed as “+” and the “Total Binding (4° C.) Qualitative Score” value is “+”.

B4: H1H11163N: human-Fc anti-STEAP2 antibody, HCVR/LCVR SEQ ID NOs 266/274 (antibody, V domains shown)
VH: QVQLQQSGPGLVKPSQALSLTCAISGDSVSSNSAAWNWIRQSPSRGLEWLGRTYYRSKWYNDYAVSVKSRITINPDTSKNHFSLHLNSMTPEDTAVYYCARARIVVVPGPEVYYYYYYDMDVWGQGTTVTVSS
VL: [about 100 residues not shown]PITFGQGTRLEIK
modifications: human Fc
As for B4, in test [2], the “FADU Avg F.A.B (Fold Above Background)” value is 2 fold. Also, in test [1], the “Internalization” value is “++” and the “Total Binding (4° C.) Qualitative Score” value is given as “++”. In addition, in test [3], the “Raji Avg F.A.B (Fold Above Background)” value is recorded as 2 fold.

B5: H1H11243N: anti-STEAP2 antibody, HCVR/LCVR SEQ ID NOs 2/10 (antibody, V domains shown)
VH: QVQLQQSGPGLVKPSQTLSLTCAISGDSVSSNSAAWNWIRQSPSRGLEWLGRTYYRSKWYNDYAVSVKSRITINPDTSKNQFSLHLNSVTPEDTAVYYCARAGIVVVPGPDIYYYYYYGMDVWGQGTTVTVSS
VL: [about 100 residues not shown]PITFGQGTRLEIK
As to B5, the “FADU Avg F.A.B (Fold Above Background)” value in test [2] was 2 fold. Moreover, the “Raji Avg F.A.B (Fold Above Background)” value in test [3] was 2 fold.

B6: H2M11163N: anti-STEAP2 antibody, mouse IgG2 Fc, HCVR/LCVR SEQ ID NOs 266/274 (antibody, V domains shown)
VH: QVQLQQSGPGLVKPSQALSLTCAISGDSVSSNSAAWNWIRQSPSRGLEWLGRTYYRSKWYNDYAVSVKSRITINPDTSKNHFSLHLNSMTPEDTAVYYCARARIVVVPGPEVYYYYYYDMDVWGQGTTVTVSS
VL: [about 100 residues not shown]PITFGQGTRLEIK
modifications: mouse IgG2 Fc
Take B6: in test [1], the “Internalization” value was “++” and the “Total Binding (4° C.) Qualitative Score” value was “++”.
